Source: PubChem BioAssay AID686979 (National Center for Advancing Translational Sciences (NCATS), 2013)
The campaign covered roughly 420,000 compounds. About 50,000 (12%) were called active. The inconclusive results got no clear call from the source; some entries with a clear call stand among them for comparison. The call rests on the fitted dose curve; in most records, active means well fitted inhibition curve with a large enough effect; inconclusive means small, poorly fitted or top-dose-only effect; inactive means flat fitted curve, though single readings scatter. No potency is given beside an inconclusive call; the fits are too rough.

test: qHTS for Inhibitors of human tyrosyl-DNA phosphodiesterase 1 (TDP1): qHTS in cells in presence of CPT; details: chicken DT40 Tdp1-/-;hTDP1 cells + 20 nM CPT, ATP luminescence, 48 h; activity change, negative = growth inhibition: at 46.2 µM (top of the series) unless noted; further: nearly all actives have a fitted effect of over 55% in size
In short: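 Cell growth measured by CellTiter-Glo luminescence after a minimum 48 h, 37 C compound exposure with 20 nM CPT in Tdp1-knockout DT40 cells stably expressing hTDP1, seeded 400/well; qHTS titration format.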
On the % scale 0 is the no-effect control and ±100 the full control effect; potency means the concentration at half of the fitted maximal effect; tags describe the fitted curve by direction and shape.

SMILES	Potency	activity change, negative = growth inhibition
C=CCn1c(SCC(=O)N2CCc3ccccc3C2)nc2ccccc2c1=O	inconclusive [inhibitor, single point]	–
O=C(c1ccccc1)N1CCN(c2ncnc3sc4c(c23)CCC4)CC1	active: 20.6 µM	–
O=C(COC(=O)C1CCN(S(=O)(=O)c2ccc3c(c2)OCCO3)CC1)NC1CCCCC1	inactive	–
COc1ccc(C(=O)Nc2ccc(N3CCN(C(=O)C(C)C)CC3)cc2)cc1[N+](=O)[O-]	inconclusive [inhibitor, partial curve]	–
COc1ccccc1OCC(=O)Nc1sc2c(c1C(N)=O)CCC2	inconclusive [inhibitor, single point]	–
C[C@H]1CN([C@@H](C)CO)C(=O)Cc2cc(NC(=O)C3CC3)ccc2O[C@H]1CN(C)Cc1ccc(Oc2ccccc2)cc1	inconclusive [inhibitor, single point]	–
O=C(NCCCN1CCCC1)c1cc2c(Cl)nc3ccccc3c2s1	active: 14.6 µM	–
Cc1cc(C)c(OCCCCCn2ccnc2)c(C)c1	inconclusive [inhibitor, single point]	–
CC1Cc2cc(S(=O)(=O)N3CCC(C(=O)N4CCN(c5ccccc5F)CC4)CC3)ccc2N1C(=O)C1CC1 (stereo not given)	inconclusive [inhibitor, single point]	–
COc1ccc(-c2ccc(CNc3ccc4[nH]c(=O)[nH]c4c3)o2)cc1Cl	inconclusive [inhibitor, single point]	–
CC1CCCN(c2nc(NCc3ccco3)nc(N)c2[N+](=O)[O-])C1 (stereo not given)	inconclusive [inhibitor, single point]	–
O=C(NCC(c1cccs1)N1CCOCC1)c1cc(F)cc(F)c1 (stereo not given)	active: 20.6 µM	–
O=C(OCc1c(-c2ccccc2)ncc2ccccc12)c1ccccc1C(F)(F)F	active: 1.03 µM	–
CC1=NN(c2ccccc2)C(=O)/C1=C\N(O)c1ccccc1	inactive	–
CCN(CC)C(=O)Oc1ccc2oc(=O)cc(-c3cc4cccc(OC)c4o3)c2c1	inconclusive [inhibitor, single point]	–
CC1CCN(S(=O)(=O)c2ccc(NC(=O)c3ccccc3F)cc2)CC1	–	inconclusive: -33.2% [inhibitor]
CC(=O)Nc1cccc(OCC(=O)/C=C2\N(C)c3ccccc3C2(C)C)c1	active: 6.51 µM	–
O=C(COC(=O)c1ccc(F)cc1F)Nc1ccc2[nH]c(=O)[nH]c2c1	inactive	–
O=C(c1ccc2c(c1)OCO2)C1CCCN(Cc2ccc(OC(F)F)cc2)C1 (stereo not given)	inconclusive [inhibitor, single point]	–
Cc1cc(C)nc(-n2nc(C)cc2Nc2ccccc2)n1	active: 2.59 µM	–
COCCn1nnnc1C(c1cc2cc(C)ccc2[nH]c1=O)N1CCc2ccccc21 (stereo not given)	inconclusive [inhibitor, single point]	–
Cc1cccc(C(=O)Nc2oc(-c3ccccc3)cc2C#N)c1	inconclusive [inhibitor, single point]	–
Cc1[nH]c2ccc(C(=O)NCCCN3CCN(C)CC3)cc2c1C	inactive	–
COc1ccc(OCCN2CCC(C(=O)NC(c3ccc(Cl)cc3)c3ncccc3C)CC2)cc1 (stereo not given)	active: 23.1 µM	–

SMILES	Potency	activity change, negative = growth inhibition
COC(=O)c1ccc(COc2ccccc2/C=N/NS(=O)(=O)c2ccccc2)cc1	inconclusive [inhibitor, single point]	–
COc1ccc(S(=O)(=O)c2c(Nc3ccc(C)cc3)sc(C(=O)c3ccc(C)cc3)c2N)cc1	inconclusive [inhibitor, full curve]	–
CCOc1ccc2nc(-c3ccccc3)[nH]c2c1	active: 9.2 µM	–
Cc1ccc(-n2nc(C)c3c(C)cc(=O)n(CC(=O)Nc4ccc(Br)cc4F)c32)cc1	inactive	–
Cc1cc(-n2c(C)c3c(C)nnc(C)c3c2C)ccc1N	active: 8.2 µM	–
OCCN1CCN(c2nc(-c3ccccc3)nc3c2oc2ccccc23)CC1	inconclusive [inhibitor, single point]	–
COc1ccc(-c2nc(CS(=O)(=O)CC(=O)NC3CCCCCC3)c(C)o2)cc1	inconclusive [inhibitor, single point]	–
O=C(Nc1ccc(Br)cn1)c1ccc2ccccc2c1	inconclusive [inhibitor, single point]	–
COc1ccc(NC(=O)c2sc3nc4c(cc3c2N)CN(C(C)C)CC4)c(OC)c1	active: 23.1 µM	–
Cc1ccc(N(CC(=O)N/N=C/c2ccc(OC3CSC3)cc2)S(=O)(=O)c2ccccc2)c(C)c1	inconclusive [inhibitor, single point]	–
COc1ccc(S(=O)(=O)N2CCCCC2)cc1NC(=O)c1cc([N+](=O)[O-])ccc1N1CCOCC1	inconclusive [inhibitor, full curve, poor fit]	–
Cc1ccccc1N(CC(=O)O)S(C)(=O)=O	inactive	–
CN(C)c1ccc(/C=C/C(=O)c2cccc(Br)c2)cc1	active: 14.6 µM	–
COc1ccc(C(=O)Nc2ccc(Cl)cc2C(=O)NCc2ccco2)cc1OC	inconclusive [inhibitor, single point]	–
CCCc1c(C(=O)N/N=C/c2ccc(OC)c(OCc3ccccc3)c2)nnn1-c1nonc1N	inconclusive [inhibitor, single point]	–
Cc1csc(NC(=O)C2CCCCC2)n1	inconclusive [inhibitor, single point]	–
COc1cc2c(cc1NC(=O)C(C)NCc1ccccc1)oc1ccccc12 (stereo not given)	inconclusive [inhibitor, single point]	–
COc1cccc(C(=O)c2sc(NC(C)C)nc2N)c1	inconclusive [inhibitor, single point]	–
CC(=O)Nc1ccc(NC(=O)CN2C(=O)NC3(CCCCCCC3)C2=O)cc1	inactive	–
CC(C)N1C(=O)C(O)(C2COC(C)(C)CC2=O)c2ccccc21 (stereo not given)	active: 5.8 µM	–
CN(C)c1ccc(/C=C/C(=O)c2ccc(O)cc2)cc1[N+](=O)[O-]	inconclusive [inhibitor, single point]	–
Cc1ccccc1-c1nc(CN2CCC(C(=O)NCCCN3CCOCC3)CC2)c(C)o1	inactive	–
Cc1ccc(C)c(N2N=C(C(=O)Nc3ccccc3N3CCCC3)CCC2=O)c1	inconclusive [inhibitor, single point]	–
Nc1ccc(Cn2ccc3c4c(N)nc(N)nc4ccc32)cc1	inconclusive [inhibitor, partial curve, poor fit]	–

SMILES	Potency	activity change, negative = growth inhibition
CC1(C(=O)NCc2ccccc2Br)CCN1Cc1ccccc1OC(F)F (stereo not given)	inconclusive [inhibitor, single point]	–
CCCS(=O)(=O)NC(=O)C1(C)CCCN(C(=O)c2ccco2)C1 (stereo not given)	inactive	–
CC(C)C(NC(=O)c1ccccc1)C(=O)N1CCN(C/C=C/c2ccccc2)CC1 (stereo not given)	inconclusive [inhibitor, single point]	–
COc1ccc(N/C=C\C(=O)c2ccc3c(c2)OCO3)cc1	inconclusive [inhibitor, single point]	–
COc1cc(NC(=O)COc2ccccc2)ccc1NC(=O)c1ccco1	inconclusive [inhibitor, single point]	–
CCN(CC)CCn1c(=N)n(CC(=O)c2ccc(C)cc2)c2ccccc21	active: 16.4 µM	–
CC(=O)N1N=C(c2cccs2)CC1c1cccs1 (stereo not given)	inconclusive [inhibitor, single point]	–
O=c1cc(Nc2ccc3c(c2)OCCO3)[nH]c(=O)n1C1CCCCC1	active: 14.6 µM	–
OCCNc1nc(N2CCCCC2)nc2ccccc12	inactive	–
O=S(=O)(c1ccccc1F)N1CCN(c2nc(-c3cccnc3)nc3ccccc23)CC1	inconclusive [inhibitor, single point]	–
CC(C)C(=O)c1cn(CC(=O)NCc2ccco2)c2ccccc12	–	inconclusive: -35.3% [inhibitor]
CCOc1ccc(C(C(=O)NC2CCCC2)N(CCCO)C(=O)c2ccc(-c3ccccc3)[nH]2)cc1 (stereo not given)	active: 20.6 µM	–
O=C1N=c2ccccc2=C1c1c(O)n(-c2cccc(F)c2)[nH]c1=O	active: 20.6 µM	–
COc1ccc(CN(C)C(=O)C(Cc2ccccc2)NC(=O)c2ccccc2)c(OC)c1 (stereo not given)	inconclusive [inhibitor, partial curve, poor fit]	–
CCOC(=O)c1c(NC(=O)CCN2C(=O)c3cccc([N+](=O)[O-])c3C2=O)sc(C(=O)OC(C)C)c1C	inconclusive [inhibitor, partial curve]	–
N#C/C(=C/c1ccc(O)c(O)c1)C(=O)NCc1ccc(Cl)cc1	active: 25.9 µM	–
CN(CCC1CCOCC1)Cc1cn[nH]c1-c1ccc(-c2ccccc2)cc1	inconclusive [inhibitor, single point]	–
CCc1ccc(NC(=O)[C@H](C)NC(=O)C2CCN(C(=O)[C@@H](N)Cc3ccccc3)CC2)cc1	inconclusive [inhibitor, single point]	–
CC(=O)N1C(O)CC(C)N1c1ccccc1 (stereo not given)	inactive	–
O=C(CSc1nc2c(c(=O)n1-c1ccc(Cl)cc1)SCC2)Nc1ccc2c(c1)OCCO2	inconclusive [inhibitor, single point]	–
COCCCNC(=O)Cn1c(=O)n(CCCCCC(=O)NCc2ccc3c(c2)OCO3)c(=O)c2sccc21	inactive	–
COc1ccc(-c2cc3nc(NCCOc4ccccc4)ccn3n2)cc1	inconclusive [inhibitor, single point]	–
